Source: article PMC12820563
The list shows a part of the results. The list includes weakly bound sequences.

Molecular target: T1, MBP-FoxP3dN (UniProt Q99JB6)
T1 sequence: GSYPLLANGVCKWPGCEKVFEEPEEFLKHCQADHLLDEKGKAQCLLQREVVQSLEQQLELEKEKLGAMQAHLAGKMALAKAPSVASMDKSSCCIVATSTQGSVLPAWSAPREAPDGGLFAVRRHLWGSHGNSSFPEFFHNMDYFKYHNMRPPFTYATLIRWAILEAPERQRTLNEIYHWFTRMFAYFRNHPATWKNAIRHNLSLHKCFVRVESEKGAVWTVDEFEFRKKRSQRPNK
Assay: PD-seq (MBP pull-down with sequencing)
Settings: 20 mM Tris-HCl pH 7.5, 100 mM NaCl, 1.5 mM MgCl2, 0.4 uM protein, 0.1 uM dsDNA library, 30 min, room temperature, amylose pull-down; high values mean tight binding; double strand, one strand shown

| Sequence | binding signal (RPM ratio (pull-down/input)) |
| --- | --- |
| GATGATTGTTCTCCCAGCTGATGAATTTAAGTGATCGAGTAAACAAATTTTCCTAATCTTTCTGTTCAAGCGCCATCTAC | 0.459 |
| GATGATTGTTCTCCCAGCTGATGAATTGCGGTCTTCGAGTAAACAAATTTTCCTAATCTTTCTGTTCAAGCGCCATCTAC | 0.807 |
| GATGATTGTTCTCCCAGCTGATGAATTGCCAAATTCGAGTAAACAAATTTTCCTAATCTTTCTGTTCAAGCGCCATCTAC | 0.453 |
| GATGATTGTTCTCCCAGCTGATGAATTAGTCGTTTCGAGTAAACAAATTTTCCTAATCTTTCTGTTCAAGCGCCATCTAC | 1.8 |
| GATGATTGTTCTCCCAGCTGATGAATTGCATGCCTCGAGTAAACAAATTTTCCTAATCTTTCTGTTCAAGCGCCATCTAC | 2.23 |
| GATGATTGTTCTCCCAGCTGATGAATTCTTGGCCTCGAGTAAACAAATTTTCCTAATCTTTCTGTTCAAGCGCCATCTAC | 0.318 |
| GATGATTGTTCTCCCAGCTGATGAATTGACGCGATCGAGTAAACAAATTTTCCTAATCTTTCTGTTCAAGCGCCATCTAC | 0.796 |
| GATGATTGTTCTCCCAGCTGATGAATTGAGATTCTCGAGTAAACAAATTTTCCTAATCTTTCTGTTCAAGCGCCATCTAC | 0.554 |
| GATGATTGTTCTCCCAGCTGATGAATTGTCTGCGTCGAGTAAACAAATTTTCCTAATCTTTCTGTTCAAGCGCCATCTAC | 0.546 |
| GATGATTGTTCTCCCAGCTGATGAATTCCAAGACTCGAGTAAACAAATTTTCCTAATCTTTCTGTTCAAGCGCCATCTAC | 0.25 |
| GATGATTGTTCTCCCAGCTGATGAATTCGTAACATCGAGTAAACAAATTTTCCTAATCTTTCTGTTCAAGCGCCATCTAC | 0.745 |
| GATGATTGTTCTCCCAGCTGATGAATTTCGGTCTTCGAGTAAACAAATTTTCCTAATCTTTCTGTTCAAGCGCCATCTAC | 0.446 |
| GATGATTGTTCTCCCAGCTGATGAATTCATAGCTTCGAGTAAACAAATTTTCCTAATCTTTCTGTTCAAGCGCCATCTAC | 0.449 |
| GATGATTGTTCTCCCAGCTGATGAATTCAATTGCTCGAGTAAACAAATTTTCCTAATCTTTCTGTTCAAGCGCCATCTAC | 2.31 |
| GATGATTGTTCTCCCAGCTGATGAATTGGGCGTGTCGAGTAAACAAATTTTCCTAATCTTTCTGTTCAAGCGCCATCTAC | 2.76 |
| GATGATTGTTCTCCCAGCTGATGAATTCCCCTCTTCGAGTAAACAAATTTTCCTAATCTTTCTGTTCAAGCGCCATCTAC | 0.259 |
| GATGATTGTTCTCCCAGCTGATGAATTCGTTACGTCGAGTAAACAAATTTTCCTAATCTTTCTGTTCAAGCGCCATCTAC | 0.727 |
| GATGATTGTTCTCCCAGCTGATGAATTGAATTCCTCGAGTAAACAAATTTTCCTAATCTTTCTGTTCAAGCGCCATCTAC | 0.478 |
